Screen size: about 52,000 compounds; about 4,300 (8.3%) were called active. Rule as the data show it: active = survival mostly below about 52% (no sharp cut-off); inactive = mostly above about 56%. The list shows a part of the results.

The test system of this assay is DeltatarO mutant. The assay can be described thus: growth inhibition of S. aureus wild type versus tarO mutant, primary screen, teichoic acid synthesis inhibitors, RN4220, OD600 (AID 463173). As to conditions: OD600, 18 h, hits give low values, screened at 18.75 µg/mL (by protocol).
For the compound `COc1ccc(Cl)cc1NCc1nnc2n1CCCCC2`, the survival is active: 8%.
For `COC(=O)c1c(NC(=O)c2ccc(OC)cc2OC)sc2c1CCCCC2`, the survival is inactive: 47%.
On to `COc1ccc(CC(C)NS(=O)(=O)c2ccc3c(c2)CCN3S(C)(=O)=O)cc1OC` (stereo unspecified), for which the survival was inactive: 124%.
On to `COc1ccc2[nH]c3c(c2c1)CCN(C(=O)CCC1CCCC1)C3c1ccc(F)cc1` (stereo unspecified), for which the survival is inactive: 64%.
Under `O=C(CC1N=C2c3ccccc3N=C(SCc3ccc(F)cc3)N2C1=O)NCCc1ccccc1` (stereo unspecified) stands inactive: 85%; under `Cc1cccc(Cn2c(-c3ccccc3)nc3ccccc32)c1`, active: -2%.
As to `O=C(CSc1nccn1-c1ccc(F)cc1)Nc1nc2ccccc2s1`, the survival was inactive: 69%.
Take `Cc1ccc(-c2cnc(C3CC3)o2)cc1S(=O)(=O)Nc1cccc(C)c1C`: the survival is inactive: 82%.
With `Cc1ccc(-n2nc3c(=O)n(C(C)C(=O)NCc4ccc(OC(C)C)cc4)nc(C)c3c2C)cc1` (stereo unspecified), the survival is inactive: 67%.
For the compound `COc1ccc2c(CNCc3cccs3)c(C(=O)O)n(Cc3ccc(F)cc3)c2c1`, the survival was inactive: 73%.
Regarding `O=Nc1c(O)n2c3c(cccc13)CCC2`, the survival is inactive: 95%.
For `CCCCn1c(=O)n(CC2CCC(C(=O)NCCCOC)CC2)c(=O)c2sccc21` (stereo unspecified), the survival was inactive: 83%.
Under `COc1cc(OC)cc(-c2nc3nc(C)c(CCC(=O)Nc4cc(C)cc(C)c4)c(C)n3n2)c1` stands inactive: 69%; under `CC(C)Cn1cc(NC(=O)N2CCN(c3ccc(F)cc3)CC2)c2ccccc2c1=O`, inactive: 99%.
In the case of `CC(=O)c1ccc(NC(=O)CSC2=Nc3ccccc3N=C(c3ccc(F)cc3)C2)cc1` it was inactive: 84%.
For the compound `CCC(Cc1ccccc1)NC(=O)Cn1nc(C)n2c(cc3occc32)c1=O` (stereo unspecified), the survival was inactive: 74%.
With `O=C(NCc1ccc(Cl)cc1)C1CCN(S(=O)(=O)c2cccc3nonc23)CC1`, the survival was inactive: 125%.
As for `CN(C)CC(C)(C)C1OCC2(CO1)COC(C(C)(C)CN(C)C)OC2` (stereo unspecified), the survival was inactive: 94%.
In the case of `CCOc1ccc2nc(NC(=O)c3nc(SCc4ccccc4F)ncc3Cl)sc2c1` it was inactive: 67%; in that of `Cc1cc(C)cc(-n2c(SCC(=O)Nc3ccccc3)nc3c(oc4ccccc43)c2=O)c1`, inactive: 101%.
In the case of `COc1cccc2cc(-c3nc(-c4ccccc4F)no3)c(=O)oc12`, the survival was inactive: 93%.
Under `CCOc1ccccc1CNC(=O)c1cc2c(=O)n(Cc3cccnc3)ccc2nc1C` stands inactive: 69%; under `Cc1c(C=Nc2ccc(Cl)cc2)c(O)n(C)c(=O)c1C#N`, inactive: 74%.
For `N#CC(C#N)=C(N)/C(C#N)=C/c1cccs1`, the survival is inactive: 81%.
In the case of `CC(=O)c1cccc(NC(=O)c2sc(-n3nc(C)c(Cc4ccccc4)c3C)nc2C)c1`, the survival was inactive: 72%.
Turning to `CCCS(=O)(=O)N1CC(=O)N(c2cccc(Cl)c2)C(C)(C(=O)NC2CCCCC2)C1` (stereo unspecified), the survival was inactive: 77%.
Regarding `CCCCN(C)CC(O)Cn1cc(/C=C/C(=O)c2ccc(Br)cc2)c2ccccc21` (stereo unspecified), the survival is active: 0%.
As for `Cc1cc(=O)[nH]c2nnc(SCc3ccc(Cl)cc3Cl)n12`, the survival is inactive: 123%.
`O=C(N/N=C/c1ccc[nH]1)c1ccccc1O`: the survival was inactive: 75%.
For the compound `Cc1ccc2c(CNC3CCCCC3)c(C(=O)O)n(Cc3ccc(F)cc3)c2c1`, the survival was inactive: 82%.
In the case of `O=C(Cn1c(SCc2ccc(F)cc2)nc2cccnc21)Nc1ccccc1F`, the survival was inactive: 101%.
Regarding `COCCNC(=O)c1ccc2c(c1)N(Cc1cc(C)ccc1C)C(=O)c1ccccc1S2=O` (stereo unspecified), the survival was inactive: 77%.
On to `Cc1ccc2nc(COc3cccc(NC(=O)Nc4ccc(C)c(Cl)c4)c3)cc(=O)n2c1`, for which the survival is active: 25%.
Under `CN(C)C(=O)CNCC1CCCO1` (stereo unspecified) stands inactive: 93%; under `Cn1ncc(N)c1C(=O)N1CCOCC1`, inactive: 101%.
Turning to `CCOCCc1nnc(NC(=O)C(=O)c2cc(C)n(-c3ccc(C)cc3C)c2C)s1`, the survival was inactive: 64%.
In the case of `Cc1ccc(S(=O)(=O)N2C(=O)CCC2C(=O)N2CCCC2)cc1` (stereo unspecified) it was inactive: 97%; in that of `CCn1c(C)c(C)c2cc(C(=O)NCC(C)c3ccccc3)ccc21` (stereo unspecified), inactive: 80%; in that of `COc1ccc2c(c1)c1c(c(=O)n(Cc3ccccc3)c(=O)n1CC(=O)Nc1ccccc1OC)n2C`, inactive: 79%.
For `COc1ccc(N(CC(=O)Nc2cccc(Cl)c2)S(=O)(=O)c2c(C)[nH]c(=O)[nH]c2=O)cc1`, the survival was inactive: 76%.
In the case of `CCOc1ccc(Nc2nc(-c3cccc(Cl)c3)c3c(n2)-c2ccccc2OC3)cc1` it was inactive: 63%; in that of `Cc1ccccc1-c1noc(CSc2nc3ccccc3[nH]2)n1`, inactive: 57%; in that of `CCOC(=O)C1CCCN(C(=O)c2ccc3c(c2)sc2nc(-c4cccc(OC)c4)cn23)C1` (stereo unspecified), inactive: 77%.
On to `CCOCCc1nn2c(=O)cc(COC(=O)c3ccccc3OC)nc2s1`, for which the survival was inactive: 94%.
For `COCCCn1c(SCc2cccc(Cl)c2)nc2c(sc3ccccc32)c1=O`, the survival is inactive: 118%.
Turning to `COc1ccc(CCCc2nnc(SCC(=O)Nc3cccc(F)c3C)o2)cc1`, the survival is active: 39%.
As for `CCc1ccccc1Nc1nn2c(=O)c3ccc(C(=O)NCCC4=CCCCC4)cc3nc2s1`, the survival was inactive: 124%.
Under `Cc1cc(=O)n2nc(N(C)CC(=O)NCc3ccccc3C)sc2n1` stands inactive: 109%; under `CCCC(=O)Nc1cccc(OCc2cc(=O)n3cccc(C)c3n2)c1`, inactive: 82%.
Take `O=C(NCCc1ccccc1)c1cc(Nc2ccccc2)nc2ccccc12`: the survival was inactive: 76%.
Regarding `CCOc1ccc(-n2c(=O)c3c4c(sc3n(CC(=O)NC(C)CC)c2=O)CCCCC4)cc1` (stereo unspecified), the survival was inactive: 98%.
Take `COC(=O)c1ccc(N2C(=O)Cc3cc(OC)c(OC)cc3C2c2ccc(F)cc2)cc1` (stereo unspecified): the survival is inactive: 70%.
Under `CCN1C(C(=O)c2ccccc2)=C(OC(=O)COc2ccc(C)cc2)c2ccccc2S1(=O)=O` stands inactive: 79%; under `Cc1ccc(CNC(=O)CSc2nc3c(sc4ccccc43)c(=O)n2CCCC(=O)NCCO)cc1`, inactive: 67%.
On to `CCc1ccccc1N=C1SCC(=O)N1C`, for which the survival was inactive: 88%.
As for `O=C(Nc1ccc(F)cc1)Nc1csc2c1CCCC2`, the survival was active: 4%.
Consider `COc1ccc(N2CCN(CCCNC(=O)C3COc4ccccc4C3)CC2)cc1` (stereo unspecified), for which the survival is inactive: 131%.
In the case of `O=C(c1ccc2c(Cl)c3c(nc2c1)CCCC3)N1CCN(c2ccc(Cl)cc2)CC1`, the survival was inactive: 92%.
In the case of `O=C(Nc1nc2c(F)cc(F)cc2s1)c1ccc(S(=O)(=O)N2CCc3ccccc32)cc1`, the survival was inactive: 115%.
Under `O=C1Cc2cc(S(=O)(=O)N3CCN(c4cccc(Cl)c4)CC3)ccc2N1` stands inactive: 73%; under `CC(=O)N1CCCC1c1nc2ccccc2n1Cc1ccccc1Cl` (stereo unspecified), inactive: 88%; under `O=C(NCc1cccnc1)c1cccc(C(=O)NCc2cccnc2)c1`, inactive: 93%.
Turning to `CCOc1ccc(CCn2c3c(c(=O)[nH]c2=O)C(NC(=O)c2cccc(F)c2)(C(F)(F)F)C(=O)N3)cc1OCC` (stereo unspecified), the survival is inactive: 76%.
With `Cc1c(CCNC(=O)c2c(F)cccc2F)sc2nc(-c3ccc(F)cc3)nn12`, the survival is inactive: 117%.
In the case of `O=C(Cc1ccc(-c2ccccc2)cc1)NCCS(=O)(=O)N1CCN(c2ccc(F)cc2)CC1`, the survival was inactive: 67%.
In the case of `Cn1ncc2c(N3CCN(c4ccc(F)cc4)CC3)ncnc21` it was inactive: 77%; in that of `COc1cc(-c2nc3sccn3c2Nc2c(C)cccc2C)ccc1O`, inactive: 125%.
As for `Cc1nc2c3cc(F)ccc3n(C)c2s1`, the survival is inactive: 79%.
On to `Cc1ccc(NC(=O)c2ccco2)cc1NC(=O)CSc1ncnc2sc3c(c12)CCC3`, for which the survival was inactive: 54%.
In the case of `COc1ccccc1CNC(=O)Cc1csc2nc(-c3ccc(F)cc3)cn12` it was inactive: 79%; in that of `CCc1cc2c(cc3c(=O)n(CC(=O)NC(C)c4ccccc4)ncn32)s1` (stereo unspecified), inactive: 78%.
Consider `O=S(=O)(c1ccc(Cl)cc1)c1nc(-c2cccs2)oc1N1CCCCC1`, for which the survival is active: 45%.
With `Cc1cc(C)nc(-n2nc(C)c3c2N(Cc2ccccc2F)C(=O)CC3c2ccc(Cl)cc2)n1` (stereo unspecified), the survival was inactive: 100%.
Under `CCOC(=O)c1sc2ccccc2c1S(=O)(=O)NCc1ccccc1OC` stands inactive: 95%; under `CCc1ccccc1NC(=O)C1CCN(S(=O)(=O)c2cn(C)cn2)CC1`, inactive: 93%; under `Cc1cc(Nc2ccc(Br)cc2)nc(C)n1`, inactive: 51%.
As to `Cc1cccc(C)c1-n1ncc(C(=O)NCCCN2CCC(C)CC2)c1C1CCN(C(=O)OC(C)(C)C)CC1`, the survival is inactive: 91%.
As to `CCC1CN(C(=O)N2CCC(C(=O)NCCc3ccc(OC)cc3OC)CC2)c2cc(C)ccc2O1` (stereo unspecified), the survival is inactive: 93%.
Under `Cc1cccc(OCc2nc(CC(=O)Nc3ccc(Cl)cc3)cs2)c1` stands inactive: 82%.
Under `COc1cccc(CSc2nc3ccncc3n2CC(=O)Nc2ccc(OC)c(OC)c2OC)c1` stands inactive: 98%; under `CCOC(=O)c1cnc2c(ccc3ccccc32)c1Nc1ccc(C(C)=O)cc1`, active: 1%.
Take `COc1cc(C)ccc1OCCSc1nc2ccc(NC(=O)c3ccco3)cc2s1`: the survival was inactive: 62%.
Take `COc1ccc(C2CC(=O)c3cc(-c4nc(-c5cccc([N+](=O)[O-])c5)cs4)c(=O)n(-c4ccccc4)c3C2)cc1` (stereo unspecified): the survival was inactive: 48%.
Regarding `CCN1c2ccccc2-c2nc(SCC(=O)Nc3cccc(C)c3C)ncc2S1(=O)=O`, the survival was inactive: 101%.
In the case of `COc1ccc(CNC(=O)CCNS(=O)(=O)c2ccc3c(c2)oc(=O)n3C)cc1`, the survival was inactive: 92%.
Under `Cc1ccccc1C(=O)Nc1cc(C)c(O)c(-c2nc3ccccc3o2)c1` stands inactive: 93%; under `CCC1CN(C(=O)Nc2ccccc2F)c2cc(C)ccc2O1` (stereo unspecified), inactive: 59%.
In the case of `CCOc1ccc(-c2nc(Cn3c(=O)cc(C)c4c(C)nn(-c5ccccc5)c43)c(C)o2)cc1` it was inactive: 55%; in that of `CC1CCN(CC2CCN(C(=O)NCc3ccccc3)CC2)CC1`, inactive: 95%; in that of `CCCCCCn1nnc2sc(-c3ccccc3)cc2c1=O`, inactive: 106%.
With `CCc1ccc(NC(=O)CN2C(=O)CSC2=O)cc1`, the survival was inactive: 76%.

These data come from PubChem BioAssay AID463173 (ICCB-Longwood Screening Facility, Harvard Medical School, 2010).
